Data: PubChem BioAssay AID1240 (Sanford-Burnham Center for Chemical Genomics, 2008)
Among all 50,000 compounds or so, about 800 (1.6%) showed an effect of 50% or more. The list shows a part of the results.

biological target: Bcl-2-like protein 10 (Homo sapiens) (UniProt Q9HD36); test: TR3 peptide-Bcl-B binding displacers, biochemical primary FP assay, phenotype converters (AID 1240); settings: GST-Bcl-B / FITC-TR3 peptide fluorescence polarization; stronger effect = higher value; compound at 3.75 mg/L;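 further: 0% = Bcl-B with tracer peptide and DMSO and 100% = tracer peptide lacking Bcl-B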
Chain of UniProt Q9HD36 (Q9HD36 whole entry, looked up): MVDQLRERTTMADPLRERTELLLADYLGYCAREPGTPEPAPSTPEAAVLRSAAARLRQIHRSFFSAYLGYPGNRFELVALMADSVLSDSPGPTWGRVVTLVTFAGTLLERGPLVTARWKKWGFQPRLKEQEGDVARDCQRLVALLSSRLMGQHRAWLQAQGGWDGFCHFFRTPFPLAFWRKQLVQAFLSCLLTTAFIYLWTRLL

| Structure (SMILES) | displacement [%] |
| --- | --- |
| Nc1c(C(=O)c2ccc(Cl)cc2)sc2nc(-c3ccccc3)ccc12 | -3.6 |
| CC(C)(C)C1CCC2(CC1)NC(=S)N(c1ccccc1)N2 (stereo not drawn) | 8 |
| O=C(Nc1nnc(COc2ccc(Cl)cc2Cl)s1)c1ccco1 | 15 |
| CC1=C(C(=O)OCCOc2ccccc2)C(c2cc3c(cc2Br)OCO3)NC(=O)N1 (stereo not drawn) | 1.6 |
| NS(=O)(=O)c1ccc(CNC2CC(=O)N(c3ccc(Cl)c(Cl)c3)C2=O)cc1 (stereo not drawn) | 5.3 |
| COc1ccc(NC(=O)COc2ccc(Br)cc2C(C)(C)C)c([N+](=O)[O-])c1 | 0 |
| CCSCCOC(=O)C1=C(C)NC2=C(C(=O)CC(C)(C)C2)C1c1cccc2ccccc12 (stereo not drawn) | -2.6 |
| COC(=O)c1c(NC(=O)C2C(C=C(Cl)Cl)C2(C)C)sc2c1CCCC2 (stereo not drawn) | 4.5 |
| COC(OC)C12c3ccccc3C(c3ccccc31)C1C(=O)N(c3cccc(Cl)c3)C(=O)C12 (stereo not drawn) | 6.9 |
| COc1ccc(NC(=O)COc2ccc(C)cc2)cc1Cl | -2.4 |
| Cc1ccc(N(CCCCN2C(=O)c3ccccc3C2=O)C(=O)c2ccc(Cl)s2)cc1 | 23.2 |
| COC(=O)c1cc2nc(-c3ccc(OC)cc3)cc(C(F)(F)F)n2n1 | 7.9 |
| O=[N+]([O-])c1ccccc1S(=O)(=O)Nc1cc(C(F)(F)F)ccc1Cl | -4.5 |
| COc1cccc(-n2c(O)c(C=Nc3cccc(Cl)c3)c(=O)[nH]c2=O)c1 | -3.7 |
| O=c1c2cc3c(=O)n(Cc4ccco4)c(=O)c3cc2c(=O)n1Cc1ccco1 | -10.4 |
| Cc1ccc(N2C(=O)CSC2c2ccc(Cl)cc2)cc1C (stereo not drawn) | 11.2 |
| CN(c1ccccc1)S(=O)(=O)c1ccc(F)cc1 | -9.3 |
| Oc1ccc(/C=N/Nc2nncc(-c3ccccc3)n2)cc1 | -3.3 |
| O=C(O)CCC(=O)NNc1nc(-c2ccccc2)c2cc(Cl)ccc2n1 | -12 |
| COc1ccc(-c2n[nH]c(=S)n2C2CCCCC2)cc1 | 1.4 |
| Cc1cc(OCC(=O)Nc2cc(-c3nc4ccccc4o3)ccc2C)ccc1Cl | 21.6 |
| COc1ccc(/C=N/N2CCN(C(c3ccccc3)c3ccccc3)CC2)c(OC)c1 | -8 |

| Structure (SMILES) | displacement [%] |
| --- | --- |
| O=C(COc1ccc([N+](=O)[O-])cc1)Nc1cccc(Cl)c1Cl | 12.9 |
| CCCOc1ccc(C(=O)Nc2ccc(N(CC)CC)cc2)cc1 | -2.6 |
| COc1ccc(S(=O)(=O)Nc2ccc(C)cc2Br)cc1 | 3.5 |
| O=C(C(c1ccccc1)c1ccccc1)N1CCN(Cc2ccncc2)CC1 | 1.2 |
| O=[N+]([O-])c1cccc(S(=O)(=O)NNc2ccccc2)c1 | -2.7 |
| O=[N+]([O-])c1cc(Cl)ccc1N1CCN(CCO)CC1 | 6.5 |
| CCOC(=O)c1c(NC(=O)c2cccc(F)c2)sc(C(=O)Nc2cc(C(F)(F)F)ccc2Cl)c1C | -7.9 |
| CCOc1cccc2c1N(C(=O)Cc1ccc(F)cc1)C(C)(C)c1ssc(=S)c1-2 | 14.9 |
| COc1ccccc1NC(=O)c1c(NC(=O)c2ccc([N+](=O)[O-])cc2)sc2c1CCCCC2 | 3.7 |
| CC(C)NC(=O)CN(c1ccc(F)cc1)S(=O)(=O)c1ccccc1 | 1.1 |
| Cc1ccc(C)c(N2C(=O)CC(Cc3ccc(Br)cc3)C2=O)c1 (stereo not drawn) | 11 |
| CCN(CC)C1=C/C(=N/S(=O)(=O)c2ccccc2)c2ccccc2C1=O | 6.2 |
| Cc1cc(OCC(=O)NC2CCCCC2)ccc1Br | -2.7 |
| COc1ccc(CNS(=O)(=O)c2ccc(Br)cc2)cc1 | 5.2 |
| COc1ccc(Br)cc1/C=C/C(=O)Nc1ccc(O)c(-c2nc3ccccc3o2)c1 | 5.5 |
| N/C(=N\OC(=O)c1ccc(I)cc1)c1ccccn1 | -0.1 |
| CCN(CC)C(=O)CN(c1cc(Cl)ccc1OC)S(=O)(=O)c1ccc(C)c([N+](=O)[O-])c1 | 13.6 |
| Cc1cc(C)c(NC(=O)c2ccccc2[N+](=O)[O-])c(C)c1 | 13.5 |
| Cc1ccc(NC(=O)C2COc3ccccc3O2)cc1 (stereo not drawn) | -6.8 |
| COc1ccc2c(c1)c(/C=C/c1nc3ccccc3c(=O)n1-c1cccc(C)c1)c(C)n2C | -6.2 |
| COC(=O)C1=C(C)N(C)C(=S)NC1c1cccc(OC)c1 (stereo not drawn) | -17.4 |
| CC1C(=O)N(c2ccc(Cl)c(Cl)c2)C(=N)N1c1nc(N(C)C)nc(N(C)C)n1 (stereo not drawn) | 4.9 |

| Structure (SMILES) | displacement [%] |
| --- | --- |
| CCOC(=O)c1c(NC(=O)c2cccnc2)sc(C)c1C | -3.5 |
| Cc1ccn(-c2cc(O)c(-n3ccc(C)n3)cc2O)n1 | -9.7 |
| O=C(NC(=S)Nc1ccc(F)cc1)c1cc2ccccc2oc1=O | 0.1 |
| Cc1ccc(N(CC(=O)Nc2cccnc2)S(=O)(=O)c2ccc(F)cc2)cc1 | -4 |
| CC(C)c1ccc2[nH]c3c(c2c1)CCC/C3=N\NC(=O)c1ccncc1 | -16.6 |
| O=C(Nc1ccccc1C(=O)Nc1ccccc1)c1ccc(C(=O)Nc2ccccc2C(=O)Nc2ccccc2)cc1 | 2.8 |
| Nc1nnc(SCC(=O)Nc2nc(-c3ccccc3)cs2)s1 | -3.2 |
| CS(=O)(=O)N(CC(=O)Nc1cccc(Br)c1)c1ccc(Cl)cc1 | 14.1 |
| Cn1cc(C(=O)N/N=C/c2ccccc2)ccc1=O | 6 |
| O=c1c2cnn(-c3ccccc3)c2nc(-c2ccccc2)n1-c1ccccc1 | 3.9 |
| O=S(=O)(c1ccccc1)N1CCN(C2CCCC2)CC1 | -7.7 |
| CN(C)S(=O)(=O)c1cc(S(=O)(=O)N(C)C)c(Cl)cc1N | -3.7 |
| COc1ccc(S(=O)(=O)Nc2ccccc2OC)cc1 | 17.7 |
| C=CCOc1ccc(C(=O)Nc2ccccn2)cc1 | -11 |
| COc1ccc(CO/N=C(/N)c2nonc2N)cc1[N+](=O)[O-] | 13.6 |
| Cc1ccc(SCCNC(=O)c2cccc(Cl)c2)cc1 | -5.9 |
| O=C(Cc1ccc([N+](=O)[O-])cc1)N1N=C(c2ccc(Br)cc2)CC1(O)C(F)(F)F (stereo not drawn) | 13.5 |
| Cc1ccc([N+](=O)[O-])cc1-c1ccc(/C=C2\C(=O)NC(=O)N(c3ccc(Cl)cc3)C2=O)o1 | 6.8 |
| NC1=NC2(CCCC2)N=C(Nc2cccc3ccccc23)N1 | -14.3 |
| O=C(c1ccc(F)cc1)c1ccc(N2CCCC2)cc1 | -7.2 |
| COc1ccc(-c2[nH]c3[n+](c2N)CCS3)cc1 | -17.5 |
| CCOc1ccc(C2C(C(=O)/C=C/c3ccccc3)=C(O)C(=O)N2CCCCCC(=O)O)cc1 (stereo not drawn) | -1 |

| Structure (SMILES) | displacement [%] |
| --- | --- |
| O=C(/C=C/c1ccccc1)NCCSc1ccccn1 | 3.7 |
| Cc1ccc(Cl)cc1NC(=O)c1ccccc1N(Cc1ccccc1)S(=O)(=O)c1ccccc1 | 2.3 |
| CC(=O)Nc1ccc(S(=O)(=O)N2CCN(Cc3ccccc3)CC2)cc1 | 1.4 |
| CC(C)(C)c1ccccc1OCC(O)CN1CCN(c2ccccc2)CC1 (stereo not drawn) | -5.2 |
| Cc1sc2nc(SC/C=C/c3ccccc3)n(-c3ccccc3)c(=O)c2c1C | -8.5 |
| CCCCc1c(C)nc(N/N=C/c2ccc(OCCC)cc2O)[nH]c1=O | -6.4 |
| Cc1cc(/C=C2/SC(=O)NC2=O)c(C)n1-c1cccnc1 | 0.8 |
| Cc1ccc(S(=O)(=O)N(CC(=O)N2CCOCC2)c2ccccc2F)cc1 | 4.3 |
| O=S(=O)(NCc1ccncc1)c1cc(Cl)ccc1Cl | -10 |
| Cc1cc(C)n(CC(O)Cn2c3ccccc3c3ccccc32)n1 (stereo not drawn) | 9 |
| CCC(Oc1ccccc1)C(=O)Nc1ccc(F)c([N+](=O)[O-])c1 (stereo not drawn) | -5.1 |
| Nc1nnc(SCC(=O)Nc2ccc3c(c2)oc2ccccc23)s1 | -0.8 |
| CCOC(=O)c1c(NC(=O)c2cnccn2)sc2c1CCC(C(C)(C)C)C2 (stereo not drawn) | 4.1 |
| COC(=O)C(Cc1c[nH]c2ccccc12)NC(=O)C(c1ccccc1)c1ccccc1 (stereo not drawn) | 0.3 |
| CC1(C)Cc2c(c(N3CCOCC3)nc3sc4c(NCc5ccccc5)ncnc4c23)CO1 | 8 |
| CCN(CC)CCCCOc1ccc(C(C)C)cc1 | -6.7 |
| Cc1cc(C(=O)N/N=C/C(Br)=C/c2ccccc2)n[nH]1 | -19.5 |
| Cc1ccc2oc(-c3cc(NC(=O)Cc4ccccc4)ccc3O)nc2c1 | 7.4 |
| N#C/C(=C/c1ccccc1)C(=O)Nc1ccc(Cl)c(Cl)c1 | 1.5 |
| COc1cc(C=C2C(=O)NC(=S)NC2=O)ccc1OS(=O)(=O)c1ccccc1 | 2.2 |
| COc1ccc(S(=O)(=O)N(CC(=O)N2CCN(c3ccccc3)CC2)c2ccc(C)cc2)cc1OC | 6.1 |
| CCOC(=O)/C(=C/Nc1ccccc1)C(=O)Nc1ccccc1 | 7 |

| Structure (SMILES) | displacement [%] |
| --- | --- |
| COc1ccc(N/C(C)=C/C(=O)c2ccc(F)cc2)cc1 | -0.7 |
| O=C(NNC(=O)C(c1ccccc1)c1ccccc1)C(c1ccccc1)c1ccccc1 | 13 |
| O=P(CC1CCCO1)(c1ccccc1)c1ccccc1 (stereo not drawn) | 2.3 |
| NC1=NC(=O)/C(=C\c2ccc(-c3ccc(F)cc3)o2)S1 | 13.5 |
| Cc1cccc2sc(NC(=O)c3ccccc3C(=O)O)nc12 | 20.9 |
| Cc1nc(-c2ccccc2)sc1C(=O)NCc1ccccc1 | 7.4 |
| O=C1NC(=S)N(C(=O)c2ccc(F)cc2)/C1=C/c1ccc(Br)cc1 | -2.2 |
| COc1ccc(-c2ccc(/C=N/NC(=O)c3cccnc3)o2)cc1Cl | 11.8 |
| COc1ccccc1C(=O)Nc1ccc(-c2cc3ccccc3oc2=O)cc1 | 12.1 |
| COc1ccccc1CNC(=O)c1cccc(C)c1 | -3.2 |
| Cc1ccc2oc(-c3cccc(NC(=O)c4ccc(-c5ccc([N+](=O)[O-])cc5C)o4)c3C)nc2c1 | 10.3 |
| COc1ccc(C(=O)Nc2cccc3nsnc23)cc1 | -2.4 |
| O=C(Cc1ccc([N+](=O)[O-])cc1)N/N=C/c1ccncc1 | 11.6 |
| CN(C)CCNC(=O)/C(=N\O)c1ccccn1 | 15.9 |
| Cc1ccc(NC(=S)NC(=O)c2ccco2)cc1C | 7.8 |
| CCOC(=O)c1sc(NC(=S)NC(=O)c2ccc([N+](=O)[O-])cc2)c(C(=O)OCC)c1C | 6.3 |
| CCOc1ccccc1NC(=O)COc1ccc2ccccc2c1 | 3.7 |
| O=C(COc1cccc2ccccc12)Nc1ccc2c(c1)OCO2 | 5.2 |
| c1ccc2sc(SCCOCCSc3nc4ccccc4s3)nc2c1 | 11.8 |
| Cc1cc(Cl)ccc1OCCCC(=O)NC1CCCCCCC1 | -7.8 |
